Experimental data taken from patent publication US9439918B2 (priority 2008, dated 2016).
In brackets after ≈: the same amount, converted by molar mass.

Columns and labels:
Assay type in all cases: cell-based
Details in all cases: broth microdilution
S. aureus 29213 Ery-S = test system: S. aureus 29213 Ery-S
[1] = test system: H. influenzae 49247 Ery-S
[2] = test system: S. pneumoniae 303 Ery-R (ermB)
[3] = test system: S. aureus 96:11480 Ery-R (MLSb)

## CCC1OC(=O)C(C)C(=O)C(C)C(OC2OC(C)CC(N(C)C)C2O)C(C)(OC)CC(C)C(=O)C(C)C2N(CCCCCn3cc(Cn4nnc5ccccc54)nn3)C(=O)OC12C (centres unmarked) [Entry 18c]
S. aureus 29213 Ery-S
  Minimum inhibitory concentration, S. aureus 29213 Ery-S: ≤ 0.125 µg/mL
[1]
  Minimum inhibitory concentration, H. influenzae 49247 Ery-S: 8 µg/mL (≈ 9.08 µM)

## CCC1OC(=O)C(C)C(=O)C(C)C(OC2OC(C)CC(N(C)C)C2O)C(C)(OC)CC(C)C(=O)C(C)C2N(CCCn3cc(-c4cccc(N)c4)nn3)C(=O)OC12C (centres unmarked) [Entry 16a]
S. aureus 29213 Ery-S
  Minimum inhibitory concentration, S. aureus 29213 Ery-S: 0.5 µg/mL (≈ 0.615 µM)
[1]
  Minimum inhibitory concentration, H. influenzae 49247 Ery-S: 16 µg/mL (≈ 19.7 µM)
[2]
  Minimum inhibitory concentration, S. pneumoniae 303 Ery-R (ermB): > 64 µg/mL

## CCC1OC(=O)C(C)C(=O)C(C)C(OC2OC(C)CC(N(C)C)C2O)C(C)(OC)CC(C)C(=O)C(C)C2N(CCCn3cc(-c4ccc(C(F)(F)F)cc4)nn3)C(=O)OC12C (centres unmarked) [Entry 13a]
S. aureus 29213 Ery-S
  Minimum inhibitory concentration, S. aureus 29213 Ery-S: 1 µg/mL (≈ 1.15 µM)
[3]
  Minimum inhibitory concentration, S. aureus 96:11480 Ery-R (MLSb): 2 µg/mL (≈ 2.31 µM)
[1]
  Minimum inhibitory concentration, H. influenzae 49247 Ery-S: > 64 µg/mL
[2]
  Minimum inhibitory concentration, S. pneumoniae 303 Ery-R (ermB): 16 µg/mL (≈ 18.5 µM)

## CCC1OC(=O)C(C)C(=O)C(C)C(OC2OC(C)CC(N(C)C)C2O)C(C)(OC)CC(C)C(=O)C(C)C2N(CCCCn3cc(-c4cccc(N)c4)nn3)C(=O)OC12C (centres unmarked) [Entry 16b]
S. aureus 29213 Ery-S
  Minimum inhibitory concentration, S. aureus 29213 Ery-S: 0.125 µg/mL (≈ 0.151 µM)
[1]
  Minimum inhibitory concentration, H. influenzae 49247 Ery-S: 2 µg/mL (≈ 2.42 µM)

## CCC1OC(=O)C(C)C(=O)C(C)C(OC2OC(C)CC(N(C)C)C2O)C(C)(OC)CC(C)C(=O)C(C)C2N(CCCCCn3cc(-c4ccccc4)nn3)C(=O)OC12C (centres unmarked) [Entry 11c]
[1]
  Minimum inhibitory concentration, H. influenzae 49247 Ery-S: 16 µg/mL (≈ 19.4 µM)
[2]
  Minimum inhibitory concentration, S. pneumoniae 303 Ery-R (ermB): 0.25 µg/mL (≈ 0.303 µM)

## CCC1OC(=O)C(C)C(=O)C(C)C(OC2OC(C)CC(N(C)C)C2O)C(C)(OC)CC(C)C(=O)C(C)C2N(CCCCCn3cc(-c4ccccn4)nn3)C(=O)OC12C (centres unmarked) [Entry 14c]
[1]
  Minimum inhibitory concentration, H. influenzae 49247 Ery-S: 64 µg/mL (≈ 77.4 µM)
[2]
  Minimum inhibitory concentration, S. pneumoniae 303 Ery-R (ermB): 0.25 µg/mL (≈ 0.302 µM)

## CCC1OC(=O)C(C)C(=O)C(C)C(OC2OC(C)CC(N(C)C)C2O)C(C)(OC)CC(C)C(=O)C(C)C2N(CCCCn3cc(-c4ccccc4)nn3)C(=O)OC12C (centres unmarked) [Entry 11b]
[3]
  Minimum inhibitory concentration, S. aureus 96:11480 Ery-R (MLSb): 0.25 µg/mL (≈ 0.308 µM)
[1]
  Minimum inhibitory concentration, H. influenzae 49247 Ery-S: 8 µg/mL (≈ 9.85 µM)
[2]
  Minimum inhibitory concentration, S. pneumoniae 303 Ery-R (ermB): 2 µg/mL (≈ 2.46 µM)

## CCC1OC(=O)C(C)C(=O)C(C)C(OC2OC(C)CC(N(C)C)C2O)C(C)(OC)CC(C)C(=O)C(C)C2N(CCCCn3cc(-c4ccc(Br)cc4)nn3)C(=O)OC12C (centres unmarked) [Entry 12b]
[1]
  Minimum inhibitory concentration, H. influenzae 49247 Ery-S: 8 µg/mL (≈ 8.98 µM)
[2]
  Minimum inhibitory concentration, S. pneumoniae 303 Ery-R (ermB): 8 µg/mL (≈ 8.98 µM)

## CCC1OC(=O)C(C)C(=O)C(C)C(OC2OC(C)CC(N(C)C)C2O)C(C)(OC)CC(C)C(=O)C(C)C2N(CCCCCn3cc(-c4cccc(N)c4)nn3)C(=O)OC12C (centres unmarked) [Entry 16c]
S. aureus 29213 Ery-S
  Minimum inhibitory concentration, S. aureus 29213 Ery-S: ≤ 0.125 µg/mL
[1]
  Minimum inhibitory concentration, H. influenzae 49247 Ery-S: 8 µg/mL (≈ 9.51 µM)
[2]
  Minimum inhibitory concentration, S. pneumoniae 303 Ery-R (ermB): 0.25 µg/mL (≈ 0.297 µM)

## CCC1OC(=O)C(C)C(=O)C(C)C(OC2OC(C)CC(N(C)C)C2O)C(C)(OC)CC(C)C(=O)C(C)C2N(CCCCn3cc(COc4c(Cl)cccc4Cl)nn3)C(=O)OC12C (centres unmarked) [Entry 17b]
S. aureus 29213 Ery-S
  Minimum inhibitory concentration, S. aureus 29213 Ery-S: ≤ 0.125 µg/mL
[1]
  Minimum inhibitory concentration, H. influenzae 49247 Ery-S: 16 µg/mL (≈ 17.6 µM)
[2]
  Minimum inhibitory concentration, S. pneumoniae 303 Ery-R (ermB): 1 µg/mL (≈ 1.1 µM)

## CCC1OC(=O)C(C)C(=O)C(C)C(OC2OC(C)CC(N(C)C)C2O)C(C)(OC)CC(C)C(=O)C(C)C2N(CCCCn3cc(-c4ccccn4)nn3)C(=O)OC12C (centres unmarked) [Entry 14b]
[1]
  Minimum inhibitory concentration, H. influenzae 49247 Ery-S: 4 µg/mL (≈ 4.92 µM)

## CCC1OC(=O)C(C)C(=O)C(C)C(OC2OC(C)CC(N(C)C)C2O)C(C)(OC)CC(C)C(=O)C(C)C2N(CCCCCn3cc(-c4ccc(Br)cc4)nn3)C(=O)OC12C (centres unmarked) [Entry 12c]
[1]
  Minimum inhibitory concentration, H. influenzae 49247 Ery-S: 16 µg/mL (≈ 17.7 µM)
[2]
  Minimum inhibitory concentration, S. pneumoniae 303 Ery-R (ermB): 1 µg/mL (≈ 1.11 µM)

## CCC1OC(=O)C(C)C(=O)C(C)C(OC2OC(C)CC(N(C)C)C2O)C(C)(OC)CC(C)C(=O)C(C)C2N(CCCn3cc(-c4ccccc4)nn3)C(=O)OC12C (centres unmarked) [Entry 11a]
S. aureus 29213 Ery-S
  Minimum inhibitory concentration, S. aureus 29213 Ery-S: 1 µg/mL (≈ 1.25 µM)
[3]
  Minimum inhibitory concentration, S. aureus 96:11480 Ery-R (MLSb): 1 µg/mL (≈ 1.25 µM)
[1]
  Minimum inhibitory concentration, H. influenzae 49247 Ery-S: > 64 µg/mL
